The experiment concerns NCI-H322M lung. The experiment in a line: growth of human tumour cells (NCI), 48 h.

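1) Cells in 96-well plates. 2) Compound, 48 h, 5 concentrations. 3) Linear interpolation between surrounding doses. 4) Unreached endpoint = highest concentration. Abbreviation: GI50, concentration required for 50% inhibition of growth. TGI: total growth inhibition.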 Some results are limits rather than exact numbers.

Regarding `CCOc1ccc([C@H]2C(C(=O)c3ccc(Cl)cc3)C3(N[C@@H]2c2ccccc2)C(=O)Nc2ccc(Br)cc23)cc1` (stereo partly specified), the GI50 was 14.8 µM and the TGI came out at 28.7 µM.
Taken in the same sequence, the figures for `CCOC(=O)c1c(NC(=O)c2ccc(C(F)(F)F)cc2)sc2c3c(ccc12)OCN(C)C3` were 1.69 µM and 3.1 µM.
The like results for `N#C/C(=C\c1ccc(-c2ccc(F)cc2)o1)C(=O)Nc1ncc(Cc2ccc(Cl)cc2Cl)s1` were, in that order, 4.23 µM and more than 100 µM.

(Values after PubChem BioAssay (NCI).)
